Measurements as given in the supplement of paper PMC3334620.
In all, about 33,000 sequences were measured (“E-score (-0.5 to 0.5)”: median about -0.017, highest 2% from about 0.3 on). The list shows a part of the results.

These sequences were tested against T1, Sut1 (UniProt P53032) (assay: PBM E-score (8-mer binding enrichment) (E-score (-0.5 to 0.5)); higher = stronger / more preferred TF binding; most listed sequences are background and not binding sites). Details: protein concentration: 200 nM; construct: GST-full length.
T1 sequence: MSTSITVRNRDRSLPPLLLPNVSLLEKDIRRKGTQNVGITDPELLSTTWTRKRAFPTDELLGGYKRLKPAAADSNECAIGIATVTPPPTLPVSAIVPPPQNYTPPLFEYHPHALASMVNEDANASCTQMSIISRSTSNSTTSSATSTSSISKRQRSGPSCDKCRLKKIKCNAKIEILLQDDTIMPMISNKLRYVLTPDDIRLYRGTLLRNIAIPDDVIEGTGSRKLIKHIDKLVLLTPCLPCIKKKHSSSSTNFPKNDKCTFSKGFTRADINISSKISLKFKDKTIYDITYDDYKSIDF
Protocol: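 Universal 'all 10-mer' protein binding microarrays (Agilent AMADID 015681) probed with GST-tagged S. cerevisiae TFs (full-length or DBD) made by in vitro transcription/translation (PURExpress), about 100-200 nM. Bound TF was detected with fluorescent anti-GST. Each ungapped 8-mer (which stands for itself and its reverse complement) is scored by the PBM enrichment score (E-score), a modified Wilcoxon-Mann-Whitney statistic from -0.5 to +0.5, computed with the Universal PBM Analysis Suite. Scale: above 0.35 generally sequence-specific binding.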

Sequence	PBM E-score
CAAGCTAG	-0.215
CGCGACGA	-0.0132
AGAGTAGA	0.163
AGGTCGCC	-0.122
CAAACACA	0.0213
CAATTGAG	-0.109
CTGCTTGC	-0.13
GCCTAGGA	-0.122
ACACCCCG	-0.0228
GCCCCGCA	-0.223
CGGCTTTA	0.0621
ACAGCACA	0.0156
ACCTGTCT	-0.0847
AACTAACG	0.177
ATCTGTAA	0.139
ACTTAGCT	-0.227
GCGAGAAC	0.0447
TACGGCCA	-0.0907
AGTCGACC	-0.115
GCATCCGA	-0.0329
ATGGGCAG	-0.15
CCAAACGA	-0.00041
CCCGAAGA	-0.0672
CGATCGGC	-0.00869
GGACTAAA	0.21

Sequence	PBM E-score
AATCAGAG	-0.0426
AAAGTCGC	0.191
AACAGTAG	-0.083
CGCCCCTA	-0.264
GTAACACA	0.074
CGGACTGA	0.298
CGTACTGA	0.0987
CAAGAGAA	0.0231
ACGACGTC	-0.0917
AAGCCCCA	-0.302
ATTTTCTG	0.158
ACGGAGCT	0.386
AGCAAGTC	0.0391
ATAACTGC	0.119
ATCTATCG	-0.00359
GTCATTGA	0.109
AAATCGGA	0.397
GATTCTAA	0.00592
ACCGCACA	-0.299
AAAGGCTA	-0.129
ACCTATTC	-0.0369
GCGTCACA	-0.2
CCTCCAAA	-0.121
ACGTCGGC	-0.135
AGTAAGAG	0.00975

Sequence	PBM E-score
TAAACTGA	0.114
AACATAGG	-0.087
CACACCGC	-0.262
ACAAGGGA	-0.249
ACGCTCGA	-0.161
GCTGCGCA	-0.203
AGTTGTAG	0.126
AGCGGCCT	-0.177
AGCTGACA	-0.039
CCGTATTC	0.127
GCTAAGTA	0.0422
CCTTTGCA	-0.0712
CACGCGTC	0.084
GGGTAACA	-0.151
ATATAATA	0.284
CGCCATGC	-0.0469
AGAGGTCA	-0.285
CACGGGGC	-0.0112
CGCCGTGA	-0.16
GGGGGACA	-0.234
CGCCTTAA	-0.126
CGTGGAAG	-0.166
GGACCTAA	0.245
CATTCACG	-0.00457
GGTGTGGA	0.0142

Sequence	PBM E-score
ATCACTTC	0.14
CCCTTAAC	-0.247
AGACCCTC	-0.206
CACGGGCA	-0.148
CAGTAACC	-0.00589
ATTCCCCA	-0.0642
AACTTTGT	0.135
CTTCTGGC	-0.351
GGTTATCA	-0.0427
AGCGAGAC	-0.0806
CTTTTGTA	0.259
ACGACGGG	-0.225
CTCATGCC	-0.165
CCTGGACA	-0.274
GTGGTGAA	-0.0685
TGCAACCA	-0.0491
CTGCACCA	-0.218
CCAGGCAA	0.0413
CCTAGTAC	-0.0149
CGTTCAAA	0.142
AGTTCCTG	-0.111
CATTGCGA	-0.188
TGGCTCAA	-0.267
AATCTGAT	0.07
CCTCTTAC	-0.164

Sequence	PBM E-score
GGGTTAAC	0.0764
CCAGGTCA	-0.201
CAGCGTCA	-0.239
AGCAAACA	0.0396
GGATTCCC	-0.235
CATTGAGA	0.0506
ACTACCTA	-0.0655
GCTCTGCC	-0.128
CCCTAGCA	-0.309
GGTTTGCA	0.00025
AGCTTGGG	-0.134
GTGTAGAA	-0.035
CTATAGAC	-0.155
CGACGAAG	-0.00663
AATTACCC	-0.00645
CCAAAGCA	0.0507
CCAGAACC	-0.0656
GAAATGAA	0.28
CAGAATGA	-0.0822
ATCCTTGC	-0.184
AACCATTG	0.00486
AGCCATAC	-0.137
TGCACAAA	0.0959
CCCGGATC	0.213
CAGGGTCG	-0.173

Sequence	PBM E-score
AGGTTCCG	0.132
AAAGATCC	0.108
CTCTTTTA	-0.00723
CTTTTTAC	0.22
AAGATCGT	-0.147
CGGAATAA	0.306
ATGGTAAA	0.198
CACTGCAC	-0.208
AGTTCTTG	0.122
AAATCGTA	0.188
GTGTGTGA	0.0318
GAATGGTA	0.00303
ATGGCAAC	0.0647
GTTCTTCA	0.0769
CACACAGG	-0.122
ACAGACTC	-0.0578
GATGTTGC	0.00396
CACCCACG	-0.0788
ATATGGCA	-0.036
GCTGCCAA	-0.147
CGCTGTCA	-0.0571
ACCAGTTA	0.13
CCGTTTAA	0.196
AGTGTCTC	-0.0924
AATCCTCG	-0.164

Sequence	PBM E-score
GTGTATCA	0.17
GCTGCGGA	0.245
GGACCCTA	-0.234
ACAACAAG	0.0827
CAGCACAC	-0.223
ACTTCCCC	-0.252
TTCGACAA	0.0817
ACGTGCAT	-0.0593
CTAGCACA	-0.135
CGAGTAAC	0.152
CCCCAACG	-0.122
CTTAGGGA	-0.225
ACTCGTCA	-0.109
AAGTTAGG	-0.0983
ACTCCATC	0.156
AGTGTCAG	-0.0827
GACTCTAC	-0.0699
ATTAACCG	0.162
CAGTACTG	-0.247
ATGGATGC	-0.0754
TACTGGAA	0.012
GGAGGGCA	-0.112
